From the supplement of paper PMC11417369
± gives the standard deviation of the averaged measurements. This is one part of the list.

The sequences below were run on PfAP2-LT AP2 domain (GST-tagged) (assay: gcPBM binding intensity (ln(normalized median fluorescence intensity)); higher = stronger DNA binding).
Outline: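 In this array assay, P. falciparum DNA-binding domains with a GST tag, expressed in E. coli, were applied for 1 h to primer-extended double-stranded 36-bp intergenic genomic probes and negative controls on an Agilent 4 × 180k array. Bound protein was visualised with Alexa488 anti-GST antibody at 488 nm. Binding intensity is the highest Masliner-normalised natural-log median intensity across replicate spots of either probe orientation.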

Sequence | gcPBM binding intensity (ln)
ATAAACATATCAATATGTACATATTTTTGTTTGTAT [XGTACX_site7018] | 8.93 ± 0.48
ATTTATCAATAAAATGCACACACTGTAATATTATTA [CACACA_site3976] | 9.03 ± 0.36
AAACCACAAAATTTTTTATATATGACCAATACATAG [CACACA_negctrl_site277] | 8.64 ± 0.45
TTATAATAGTTAAATGTACACACTAACTACATGGAA [CACACA_site9070] | 8.85 ± 0.42
TTATAAATTATAGGTACACACAAAAAAAAAAAGAAA [CACACA_site1327] | 8.87 ± 0.51
ATTTGTTACACTAAATGTACATACATACATATATAT [XGTACX_site6175] | 9.1 ± 0.52
AGCACAGACGGACACACACACATATATATATATATA [CACACA_site4341] | 10.37 ± 0.085
ATATATATGTATGTATGTACATATTTGAATTTATTT [XGTACX_site8470] | 8.97 ± 0.54
ACAGATATACATAAAAAAAAAATAATTTTACATATA [CACACA_negctrl_site929] | 8.49 ± 0.57
TTCCATATAATTACATGTACACATTTTGAATAATAT [XGTACX_site3692] | 8.96 ± 0.46
AATAATAATAAATATACACACATCATACAATTAACA [CACACA_site3679] | 9.2 ± 0.41
TATTTTTTTCTTACTACACACATATAGATGCTTTCC [CACACA_site7825] | 8.96 ± 0.47
GGTCTTTTCAACACACGTACATAAAAATATTATACA [XGTACX_site5360] | 8.86 ± 0.23
TATATATTGATATGCACACCTATGTATTGATGTATA [CACACA_site1073] | 9.11 ± 0.35
TAAACATATAGAGGGGTGCAAAGAATTGTAAAATTT | 8.79 ± 0.61
TATATATATAATTAAAGTACATATAACCACAAAAAT [XGTACX_site7289] | 8.96 ± 0.36
ACATAAATTTAATACACACACAAAGAAAAAAAAAAA [CACACA_site4088] | 9.46 ± 0.55
TAATATAATATATATACACACAAGAAATACAAAACG [CACACA_site1378] | 9.36 ± 0.4
ATATTATTATAATATACATATATATATATAATATAT [CACACA_negctrl_site480] | 8.7 ± 0.33
TATTAATCTAATTCATAAAAAATGATCTATTTTGTT [CACACA_negctrl_site1035] | 8.37 ± 0.47
AAAATGAACAGACACACACACATATTTATATTTATA [CACACA_site7182] | 9.68 ± 0.38
ACCTAAAAGGTATAATATATAAATAAAAAAAAAAAT [CACACA_negctrl_site134] | 8.84 ± 0.54

Sequence | gcPBM binding intensity (ln)
AACATTTGATAAGATACACACACAAGGAAAAAAATA [CACACA_site8004] | 9.43 ± 0.44
TAGAATAATCTATAAACACACAAACACAACAAAAGA [CACACA_site7861] | 9.31 ± 0.47
TTTTTTTCTTTATTAGCACACATAATATTATATATG [CACACA_site8841] | 8.88 ± 0.45
TATATCATTATATAAACACACAATATGTTTTTTATA [CACACA_site3781] | 8.56 ± 0.45
TATTATTTTTTAAATTGTACAATAAATTATAAAAGG [XGTACX_site1162] | 8.23 ± 0.38
GAAAAGCAGATAAATGTGCACATATATGTTTGTATA | 9.11 ± 0.52
TATAGGTATATATAAGTGCAATATATATGTATATAC [GTGCAC_site9427] | 8.95 ± 0.45
ACATAAAATTGTTAAAAAATTGTATAAATAATACAT [XGTACX_negctrl_site557] | 8.54 ± 0.42
CAGCTCTTAAAAATTACACACATATACTCATATATA [CACACA_site5757] | 8.87 ± 0.35
AGATATTTTATAATTACACACATGAGGTTATTTGAA [CACACA_site1999] | 8.88 ± 0.32
TTATAAAAATAATATCGTACAAATGACATAGATGAA [XGTACX_site2570] | 8.78 ± 0.45
CATATACATAAACACACACACACATAAATAAATATA [CACACA_site4864] | 10 ± 0.13
CACATACCCATACAAACACACATTATATATATATAT [CACACA_site4965] | 9.56 ± 0.33
AAAAAAAAAAAAAAAACACACATAAATAGCTCAAAT [CACACA_site3973] | 8.89 ± 0.52
GATATATAAATAGATACACACATACATACATACATA [CACACA_site6260] | 9.38 ± 0.22
ATATCGTGTGCATTAACACACATTTATTTGAATAAA [CACACA_site7162] | 9.12 ± 0.35
TACGATTAAAAAAAATGTACAGATTTTTATAGAATA [XGTACX_site6561] | 8.44 ± 0.47
ATATTACCCATATATGCACACATTGTAGTTATTTAT [CACACA_site2636] | 9.39 ± 0.37
ATATAATTACCATATGGTACACACATATATATATGT [XGTACX_site7393] | 9.63 ± 0.31
TTTTGTAGCAAAAAATAGGAAAAAAAAAAATTAAAT [GTGCAC_negctrl_site8] | 8.44 ± 0.49
TTAAGATACAAAAAAGTGCATATTTTTTAACAAAAA | 8.54 ± 0.53
TTAAGATATATAAAGAGTACACATAAGAGTAATGCT [XGTACX_site58] | 8.85 ± 0.44
